# This is one part of the list.
# Legend:
# Assay in all cases: glycan array binding signal (z-score within array); higher = stronger binding
# Conditions in all cases: glycan notation: IUPAC condensed, linker removed
# [1] = target: Fuc(a1-2)[GalNAc(b1-3)]Gal
# How it was run: (§1)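 Glycan array binding is given as a within-array Z-score, which can be read as non-binding when negative. The arrays, 3228 of them, came from the Consortium for Functional Glycomics database and were retained only where the protein sequence was available. Z-scores were averaged across arrays of the same protein sequence at different concentrations or buffers and across linkers.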
# Fuc(a1-3)GlcNAc = target: Fuc(a1-3)GlcNAc
# How it was run: as §1
# [2] = target: Fuc(a1-3)[Gal(b1-4)]Glc6S
# How it was run: as §1
# [3] = target: Fuc(a1-3)[Gal(b1-4)]GlcNAc
# How it was run: as §1
# [4] = target: Fuc(a1-3)[Gal(b1-4)]GlcNAc(b1-2)Man
# How it was run: as §1
# [5] = target: Fuc(a1-3)[Gal(b1-4)]GlcNAc(b1-2)Man(a1-3)[Fuc(a1-3)[Gal(b1-4)]GlcNAc(b1-2)Man(a1-6)]Man(b1-4)GlcNAc(b1-4)GlcNAc
# How it was run: as §1
# [6] = target: Fuc(a1-3)[Gal(b1-4)]GlcNAc(b1-2)Man(a1-3)[Fuc(a1-3)[Gal(b1-4)]GlcNAc(b1-2)Man(a1-6)]Man(b1-4)GlcNAc(b1-4)[Fuc(a1-6)]GlcNAc
# How it was run: as §1
# [7] = target: Fuc(a1-3)[Gal(b1-4)]GlcNAc(b1-3)Gal(b1-3)[Fuc(a1-4)]GlcNAc
# How it was run: as §1
# [8] = target: Fuc(a1-3)[Gal(b1-4)]GlcNAc(b1-3)Gal(b1-4)[Fuc(a1-3)]GlcNAc
# How it was run: as §1
# [9] = target: Fuc(a1-3)[Gal(b1-4)]GlcNAc(b1-3)Gal(b1-4)[Fuc(a1-3)]GlcNAc(b1-3)Gal(b1-4)[Fuc(a1-3)]GlcNAc
# How it was run: as §1
# [10] = target: Fuc(a1-3)[Gal(b1-4)]GlcNAc(b1-3)GalNAc
# How it was run: as §1
# [11] = target: Fuc(a1-3)[Gal(b1-4)]GlcNAc(b1-6)GalNAc
# How it was run: as §1
# [12] = target: Fuc(a1-3)[Gal(b1-4)]GlcNAc(b1-6)[Gal(b1-3)GlcNAc(b1-3)]Gal(b1-4)Glc
# How it was run: as §1
# [13] = target: Fuc(a1-3)[Gal(b1-4)]GlcNAc6S
# How it was run: as §1
# [14] = target: Fuc(a1-3)[Gal3S(b1-4)]Glc
# How it was run: as §1
# [15] = target: Fuc(a1-3)[Gal3S(b1-4)]GlcNAc
# How it was run: as §1
# [16] = target: Fuc(a1-3)[Gal3S(b1-4)]GlcNAc6S
# How it was run: as §1
# [17] = target: Fuc(a1-3)[GalNAc(b1-4)]GlcNAc
# How it was run: as §1
# [18] = target: Fuc(a1-3)[GalNAc(b1-4)]GlcNAc6S
# How it was run: as §1
# Fuc(a1-4)GlcNAc = target: Fuc(a1-4)GlcNAc
# How it was run: as §1
# Fuc(b1-3)GlcNAc = target: Fuc(b1-3)GlcNAc
# How it was run: as §1
# Gal(a1-2)Gal = target: Gal(a1-2)Gal
# How it was run: as §1
# Gal(a1-3)Gal = target: Gal(a1-3)Gal
# How it was run: as §1
# Gal(a1-3)Gal(b1-3)GlcNAc = target: Gal(a1-3)Gal(b1-3)GlcNAc
# How it was run: as §1
# [19] = target: Gal(a1-3)Gal(b1-3)GlcNAc(b1-2)Man
# How it was run: as §1
# [20] = target: Gal(a1-3)Gal(b1-3)GlcNAc(b1-2)Man(a1-3)[Gal(a1-3)Gal(b1-3)GlcNAc(b1-2)Man(a1-6)]Man(b1-4)GlcNAc(b1-4)GlcNAc
# How it was run: as §1
# [21] = target: Gal(a1-3)Gal(b1-3)GlcNAc(b1-3)GalNAc
# How it was run: as §1
# [22] = target: Gal(a1-3)Gal(b1-3)GlcNAc(b1-6)GalNAc
# How it was run: as §1
# [23] = target: Gal(a1-3)Gal(b1-3)[Fuc(a1-4)]GlcNAc(b1-2)Man(a1-3)[Gal(a1-3)Gal(b1-3)[Fuc(a1-4)]GlcNAc(b1-2)Man(a1-6)]Man(b1-4)GlcNAc(b1-4)GlcNAc
# How it was run: as §1
# Gal(a1-3)Gal(b1-4)Glc = target: Gal(a1-3)Gal(b1-4)Glc
# How it was run: as §1
# Gal(a1-3)Gal(b1-4)GlcNAc = target: Gal(a1-3)Gal(b1-4)GlcNAc
# How it was run: as §1
# [24] = target: Gal(a1-3)Gal(b1-4)GlcNAc(b1-2)Man
# How it was run: as §1
# [25] = target: Gal(a1-3)Gal(b1-4)GlcNAc(b1-2)Man(a1-3)[Gal(a1-3)Gal(b1-4)GlcNAc(b1-2)Man(a1-6)]Man(b1-4)GlcNAc(b1-4)GlcNAc
# How it was run: as §1
# [26] = target: Gal(a1-3)Gal(b1-4)GlcNAc(b1-3)GalNAc
# How it was run: as §1
# [27] = target: Gal(a1-3)Gal(b1-4)GlcNAc(b1-6)GalNAc
# How it was run: as §1
# [28] = target: Gal(a1-3)Gal(b1-4)[Fuc(a1-3)]GlcNAc
# How it was run: as §1
# [29] = target: Gal(a1-3)Gal(b1-4)[Fuc(a1-3)]GlcNAc(b1-2)Man(a1-3)[Gal(a1-3)Gal(b1-4)[Fuc(a1-3)]GlcNAc(b1-2)Man(a1-6)]Man(b1-4)GlcNAc(b1-4)GlcNAc
# How it was run: as §1
# Gal(a1-3)GalNAc = target: Gal(a1-3)GalNAc
# How it was run: as §1
# [30] = target: Gal(a1-3)[Gal(a1-4)]Gal(b1-4)GlcNAc
# How it was run: as §1
# [31] = target: Gal(a1-4)Gal(b1-3)GlcNAc(b1-2)Man(a1-3)[Gal(a1-4)Gal(b1-3)GlcNAc(b1-2)Man(a1-6)]Man(b1-4)GlcNAc(b1-4)GlcNAc
# How it was run: as §1
# Gal(a1-4)Gal(b1-4)Glc = target: Gal(a1-4)Gal(b1-4)Glc
# How it was run: as §1
# Gal(a1-4)Gal(b1-4)GlcNAc = target: Gal(a1-4)Gal(b1-4)GlcNAc
# How it was run: as §1
# [32] = target: Gal(a1-4)Gal(b1-4)GlcNAc(b1-2)Man(a1-3)[Gal(a1-4)Gal(b1-4)GlcNAc(b1-2)Man(a1-6)]Man(b1-4)GlcNAc(b1-4)GlcNAc
# How it was run: as §1
# [33] = target: Gal(a1-4)Gal(b1-4)GlcNAc(b1-3)Gal(b1-4)Glc
# How it was run: as §1
# Gal(a1-4)GlcNAc = target: Gal(a1-4)GlcNAc
# How it was run: as §1
binder,measurement,setting,value
PFL (Pseudomonas fluorescens) (protein) MSKYAVANQWGGSSAPWHPGGTWVLGARDNQNVVAIEIKSGDGGKSFTGTMTYAGEGPIGFKAQRTGQNQYNVENQWGGNDAPWHPGGKWVIGGRDNQNVIALSVTSSDGGKNLSGTNTYANEGPIGFRGQIE,glycan array binding signal (z-score),[1],-0.117
same,glycan array binding signal (z-score),Fuc(a1-3)GlcNAc,-0.12
same,glycan array binding signal (z-score),[2],-0.105
same,glycan array binding signal (z-score),[3],-0.116
same,glycan array binding signal (z-score),[4],-0.11
same,glycan array binding signal (z-score),[5],-0.103
same,glycan array binding signal (z-score),[6],-0.079
same,glycan array binding signal (z-score),[7],-0.111
same,glycan array binding signal (z-score),[8],-0.102
same,glycan array binding signal (z-score),[9],-0.106
same,glycan array binding signal (z-score),[10],-0.111
same,glycan array binding signal (z-score),[11],-0.111
same,glycan array binding signal (z-score),[12],-0.044
same,glycan array binding signal (z-score),[13],-0.116
same,glycan array binding signal (z-score),[14],-0.117
same,glycan array binding signal (z-score),[15],-0.116
same,glycan array binding signal (z-score),[16],-0.115
same,glycan array binding signal (z-score),[17],-0.105
same,glycan array binding signal (z-score),[18],-0.111
same,glycan array binding signal (z-score),Fuc(a1-4)GlcNAc,-0.116
same,glycan array binding signal (z-score),Fuc(b1-3)GlcNAc,-0.112
same,glycan array binding signal (z-score),Gal(a1-2)Gal,-0.113
same,glycan array binding signal (z-score),Gal(a1-3)Gal,-0.116
same,glycan array binding signal (z-score),Gal(a1-3)Gal(b1-3)GlcNAc,-0.116
same,glycan array binding signal (z-score),[19],-0.113
same,glycan array binding signal (z-score),[20],-0.056
same,glycan array binding signal (z-score),[21],-0.112
same,glycan array binding signal (z-score),[22],-0.117
same,glycan array binding signal (z-score),[23],0.499
same,glycan array binding signal (z-score),Gal(a1-3)Gal(b1-4)Glc,-0.11
same,glycan array binding signal (z-score),Gal(a1-3)Gal(b1-4)GlcNAc,-0.115
same,glycan array binding signal (z-score),[24],-0.116
same,glycan array binding signal (z-score),[25],-0.098
same,glycan array binding signal (z-score),[26],-0.115
same,glycan array binding signal (z-score),[27],-0.118
same,glycan array binding signal (z-score),[28],-0.115
same,glycan array binding signal (z-score),[29],-0.079
same,glycan array binding signal (z-score),Gal(a1-3)GalNAc,-0.117
same,glycan array binding signal (z-score),[30],-0.105
same,glycan array binding signal (z-score),[31],0.084
same,glycan array binding signal (z-score),Gal(a1-4)Gal(b1-4)Glc,-0.108
same,glycan array binding signal (z-score),Gal(a1-4)Gal(b1-4)GlcNAc,-0.109
same,glycan array binding signal (z-score),[32],-0.103
same,glycan array binding signal (z-score),[33],-0.113
same,glycan array binding signal (z-score),Gal(a1-4)GlcNAc,-0.111

# From the supplement of paper PMC8728848
